Experimental data from PubChem BioAssay AID488969 (Vanderbilt High Throughput Screening Facility, 2010).
Whole data set: some 110,000 compounds, median “z-score” near -0.1, cut for the highest 2% near 2. The list shows a part of the results. Calls of active or inactive are those of the source.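 How the source made its calls: active means z-score in the third read window above 3 or below -3; inactive means the rest.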

biological target: Metabotropic glutamate receptor 8 (Rattus norvegicus) (UniProt P70579); assay: rat mGluR8 modulators via GIRK flux, primary screen, cell-based, thallium flux, HTS (AID 488969); settings: HEK293 rat mGluR8, GIRK (G protein-gated inwardly rectifying potassium channel) thallium flux, FluoZin2; at 10 µM; stronger effect = higher value; submaximal glutamate (EC20) added with thallium
Chain of UniProt P70579 (P70579 whole entry, looked up): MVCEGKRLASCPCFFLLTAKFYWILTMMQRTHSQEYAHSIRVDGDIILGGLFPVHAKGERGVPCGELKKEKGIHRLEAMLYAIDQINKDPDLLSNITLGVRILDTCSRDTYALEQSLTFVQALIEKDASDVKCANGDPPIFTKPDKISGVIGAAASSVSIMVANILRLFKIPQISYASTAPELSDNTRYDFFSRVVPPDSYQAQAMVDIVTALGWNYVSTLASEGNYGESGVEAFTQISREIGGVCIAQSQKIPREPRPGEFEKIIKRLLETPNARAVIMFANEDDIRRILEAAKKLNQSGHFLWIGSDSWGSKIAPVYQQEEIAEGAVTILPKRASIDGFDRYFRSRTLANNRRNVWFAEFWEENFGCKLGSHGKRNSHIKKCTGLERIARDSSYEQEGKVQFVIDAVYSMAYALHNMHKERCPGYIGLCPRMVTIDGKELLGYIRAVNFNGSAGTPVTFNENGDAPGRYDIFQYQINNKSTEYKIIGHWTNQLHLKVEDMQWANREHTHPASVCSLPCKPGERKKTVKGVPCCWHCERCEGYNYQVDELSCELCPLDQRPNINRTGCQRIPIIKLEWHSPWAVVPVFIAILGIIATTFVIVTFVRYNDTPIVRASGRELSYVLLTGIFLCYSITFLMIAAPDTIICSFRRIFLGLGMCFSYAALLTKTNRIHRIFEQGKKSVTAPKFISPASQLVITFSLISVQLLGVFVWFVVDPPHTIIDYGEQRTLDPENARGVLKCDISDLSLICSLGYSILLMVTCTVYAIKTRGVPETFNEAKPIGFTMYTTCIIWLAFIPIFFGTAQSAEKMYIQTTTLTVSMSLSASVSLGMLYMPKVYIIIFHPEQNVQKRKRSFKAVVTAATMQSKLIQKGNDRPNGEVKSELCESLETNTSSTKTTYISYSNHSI

Row | Structure (SMILES) | z-score
1 | O=C(NC1=NCCS1)c1cc(-c2ccc(-c3ccccc3)cc2)nc2ccccc12 | -0.0857
2 | CNC(C)c1cc(OC)ccc1OC (stereo unspecified) | -0.145
3 | c1ccc(Nc2nc(N3CCCCC3)nc(N3CCNCC3)n2)cc1 | 1.8
4 | COc1ccc(N2C(=O)C3CCCN3C2c2cccs2)cc1 (stereo unspecified) | 0.246
5 | Cn1c(=O)[nH]c2sc3c(c2c1=O)CC(C)(C)OC3 | -0.263
6 | CCCC12CN3CC(C)(CN(C1)C3c1ccc3c(c1)OCO3)C2=O (stereo unspecified) | 1.26
7 | CCOC(=O)N1CCC(N(CCCOC)C(=O)Nc2ccc(CC)cc2)CC1 | 0.0496
8 | O=C(Nc1cccc(C(F)(F)F)c1)NC1CCCCC1 | -0.422
9 | Cc1c(NC(=O)CCCOc2ccccc2)cccc1[N+](=O)[O-] | -0.116
10 | CCOC(=O)c1cc(NC(=O)N2CCCCC2)c(C)nc1C | -0.296
11 | Cc1cc(N2C(=O)C3CC=CC(C)C3C2=O)no1 (stereo unspecified) | -1.13
12 | Cc1ccc(NC(=O)CSc2nnc(-c3ccncc3)o2)cc1 | 0.17
13 | Cc1ccc(SCC(=O)Nc2ccccc2C(=O)N2CCOCC2)cc1 | -0.074
14 | Cc1cc(C)nc(SCC(=O)N/N=C\c2sccc2C)n1 | -0.153
15 | O=C(COC(=O)c1ccc(Cl)s1)c1cc2ccccc2o1 | 0.321
16 | CCOc1ccccc1NC(=O)Nc1c(C)n(-c2ccccc2)c(=O)n1C | 0.382
17 | CCc1nc2ccccc2[nH]1 | 0.00543
18 | OCCOCCn1c(-c2ccccc2)nc(=S)c2c1CCCC2 | 0.333
19 | CN1C(=O)c2ccc(NC(=O)c3ccc(N4CCCCC4)c([N+](=O)[O-])c3)cc2C1=O | -0.139
20 | C=CCNC(=S)Nc1cc(Cl)ccc1OC | -0.117
21 | COC(=O)c1c(NC(=O)c2ccc(Br)o2)sc(C)c1C | -0.47
22 | Cc1ccc(/C=c2\sc3nc(-c4ccco4)nn3c2=O)o1 | -1.53
23 | Cn1nc(-c2ccccc2)c(CSc2cccc(Cl)c2)c1Cl | 0.0135
24 | CCc1ccc(NC(=O)N(C2CCC(C)CC2)C2CCN(C(C)=O)CC2)cc1 (stereo unspecified) | 0.199

Row | Structure (SMILES) | z-score
25 | O=C(/C=C\c1ccco1)Nc1nc(-c2ccccc2)cs1 | -0.146
26 | Cn1c(SCCOc2ccccc2Cl)nnc1-c1ccncc1 | -0.133
27 | O=C1C2C3C=CC(C4CC34)C2C(=O)N1CCc1ccccc1 (stereo unspecified) | 0.403
28 | Clc1cccc(-c2cc3nc4c(c(NCc5ccco5)n3n2)CCCC4)c1 | -0.169
29 | Cc1oc2c(c1C(=O)c1ccc(Cl)cc1)C(=O)C(=O)c1ccccc1-2 | 0.323
30 | O=C(O)c1cccc2cccnc12 | -0.196
31 | CCOC(=O)c1[nH]c2ccc(OCC)cc2c1NC(=O)CN1CCCC(C)C1 (stereo unspecified) | 0.0702
32 | O=C(O)[C@H](Cc1ccccc1)N1Cc2ccccc2C1=O | -0.186
33 | Cc1cc(C)cc(OCC(=O)NCC2CCCO2)c1 (stereo unspecified) | 1.08
34 | CCN1CCCC1CNC(=O)c1ccccc1Cl (stereo unspecified) | -0.0729
35 | O=C(NNc1nc2ccccc2nc1C(F)(F)F)c1ccccc1 | 2.44
36 | Fc1ccc(/C=N/Nc2ccccn2)cc1 | -0.0704
37 | Cc1cccc(OCC(=O)NCc2ccncc2)c1C | 1.61
38 | Cc1ccc(Sc2c(C=O)c3ccccc3n2C)cc1 | -0.314
39 | CCC(CC)C(=O)NCCN1CCN(C(=O)C(CC)CC)CC1 | 0.112
40 | N=c1n(Cc2ccccc2)c2ccccc2n1CC(O)c1ccccc1 (stereo unspecified) | 0.899
41 | CCCCNC(=O)Nc1cc(C)on1 | 0.265
42 | Cc1cc(C(F)(F)F)nn1Cc1n[nH]c(=S)n1-c1ccc(Cl)cc1 | -0.102
43 | COc1cc(Nc2nc(-c3ccccc3)c3cc(C)ccc3n2)cc(OC)c1OC | -0.218
44 | CCN1c2ccccc2NC2N=C(OC)C(c3ccccc3)C21 (stereo unspecified) | -0.615
45 | C=C(C)CN1C(=O)c2ccccc2C1=O | 0.241
46 | CCNC(=S)NCc1ccc(Cl)cc1 | 0.000554
47 | COc1ccc(C2=NOC(C(=O)NCc3ccc(F)cc3)C2)cc1OC (stereo unspecified) | -0.0539
48 | CC1CC/C(=N/Nc2ccccc2)C(=O)N1 (stereo unspecified) | 0.144

Row | Structure (SMILES) | z-score
49 | COc1cc(C(=O)NCc2cccc3ccccc23)ccc1OCc1ccccc1 | -0.226
50 | CCOc1ncccc1C(=O)OCC(=O)Nc1cc(C)ccc1C | -0.205
51 | CCOc1ccc(C(=O)N(C)C2CCS(=O)(=O)C2)cc1 (stereo unspecified) | 0.13
52 | CC(C)N(Cc1ccccc1)C(=O)COC(=O)c1ccc2c(c1)OCCO2 | -0.487
53 | CC1(C)C(c2cccs2)=[N+]([O-])C2(CCCCC/C2=N\NC(N)=O)N1O (stereo unspecified) | -0.175
54 | COc1cccc(N(C(=O)CCl)C(C(=O)NCCc2ccccc2)c2cccs2)c1 (stereo unspecified) | -0.237
55 | CCOC(=O)C1=C(c2ccccc2)N=c2s/c(=C\c3ccco3)c(=O)n2C1c1cccs1 (stereo unspecified) | -0.0854
56 | Cc1cc(C)n2cc(CSCc3ccccc3)nc2n1 | 1.06
57 | O=C(N/N=C/c1ccc([N+](=O)[O-])o1)c1cc(-c2cccc(Br)c2)nc2ccccc12 | -0.204
58 | O=S(=O)(/N=C(/Nc1ccccc1)C(F)(F)F)c1ccccc1 | -0.1
59 | CCCc1c(C)nc2ccc(OC)cc2c1SCCC(=O)O | -0.193
60 | O=c1c(C(c2ccc(O)cc2)c2c(O)nc3n(c2=O)CCCS3)c(O)nc2n1CCCS2 | -0.799
61 | CCCCN(C)CCCNC(=O)c1ccc(N2CCCC2=O)cc1 | 0.26
62 | CCN(Cc1ccccc1)C(c1ccccn1)c1nnnn1C(C)(C)CC (stereo unspecified) | -0.194
63 | Cc1[nH]ccc(=O)c1OCc1ccccc1 | -0.0749
64 | O=C(Cc1ccccc1)Nc1ccc(NC(=O)c2cccc(Cl)c2)cc1 | -0.374
65 | O=C(NCc1ccc2c(c1)OCO2)c1ccc(CN2CCc3ccccc3C2)cc1 | -0.165
66 | Cn1c(=O)c(=O)n(C)c2cc(S(=O)(=O)N3CCN(c4cccc(C(F)(F)F)c4)CC3)ccc21 | -0.265
67 | Cc1ccc(Oc2cc(C)nc(-c3ccccc3O)n2)cc1 | 0.181
68 | COc1cc2c(cc1OC)-c1nnc(C)n1C1(CCCC1)C2 | -0.0623
69 | CCN(C(=O)c1ccnc(C(C)(C)C)c1)c1ccccc1 | -0.245
70 | CCCCCCn1c(CN2CCCC(C)C2)nc2c1c(=O)n(C)c(=O)n2C (stereo unspecified) | -0.779
71 | CC(=O)N1c2c(cc(Br)cc2S(=O)(=O)N2CCN(c3ccccn3)CC2)CC1C (stereo unspecified) | 0.0805
72 | NC(=O)COC(=O)c1ccc(S(=O)(=O)N2CCCCCC2)cc1 | -0.304

Row | Structure (SMILES) | z-score
73 | CC(NC(=O)c1cnc2n(c1=O)CCS2)c1ccccc1 (stereo unspecified) | -0.182
74 | Cc1cnc(NC(=O)C2CCCO2)s1 (stereo unspecified) | -0.0828
75 | CN(CCNC(=O)c1cn(C)c2ccc(S(=O)(=O)N(C)C)cc2c1=O)CCc1ccccc1 | -0.328
76 | CC(Oc1ccc(Cl)cc1Cl)C(=O)OCn1nnc2ccccc2c1=O (stereo unspecified) | -1.64
77 | Cc1cc(C)c(NC(=O)C2CCN(c3cnccn3)CC2)c(C)c1 | -0.306
78 | Cc1cccc(/C=c2\s/c(=C\C(=O)C(C)(C)C)[nH]c2=O)c1 | active: 9.35
79 | Cc1cccc(-c2c3c(=O)n(C)c(=O)n(C)c3cn2C(C)C)c1 | 0.0615
80 | CCC(=O)Nc1ccc(C(=O)N/N=C/c2cccnc2)cc1 | -0.023
81 | CNCc1ccccc1Sc1ccc(OC)c(OC)c1 | 0.3
82 | COc1cc(OC)c(C2SCCN2S(=O)(=O)c2ccc(F)cc2)cc1OC (stereo unspecified) | -0.279
83 | CCCCCCSc1nc2c(c(=O)[nH]c(=O)n2C)n1C | -0.259
84 | Cc1ccc(C)c(NC(=O)CSc2ncnc3nc[nH]c23)c1 | 0.0633
85 | O=C(NC(=S)Nc1ccc(CN2CCOCC2)cc1)c1cccc([N+](=O)[O-])c1 | 2.19
86 | COc1ccc(NC(=O)c2ccco2)c([N+](=O)[O-])c1 | -0.171
87 | CC1CCCCC1NC(=O)CSc1nnnn1-c1ccccc1 (stereo unspecified) | 0.0648
88 | O=C(Nc1nc(-c2cc3ccccc3oc2=O)cs1)c1ccc(Br)o1 | active: 13.7
89 | CCOC(=O)c1cc(C#N)c(SCc2cccc3ccccc23)nc1C | 0.231
90 | Cc1nc2cc(C(=O)N3CCc4ccccc43)ccc2n1-c1ccc(F)c(F)c1 | -0.827
91 | CCCCNc1cc(=O)n(C)c(=O)[nH]1 | -0.35
92 | Cc1c(Cl)c([N+](=O)[O-])nn1CCCC(=O)Nc1cccc(Cl)c1 | -2.13
93 | COCCn1c(-c2ccccc2)nc2oc3cc(OC)ccc3c(=O)c2c1=O | 0.0224
94 | N#Cc1cnn2cc(-c3ncc(C(F)(F)F)cc3Cl)cnc12 | 0.0881
95 | O=C(Nc1ccccc1)c1ccc2nc(-c3ccco3)c(-c3ccco3)nc2c1 | 0.011
96 | Cc1ccc2nc(Cl)c(C3CC(c4cccs4)=NN3C(=O)CCCC(=O)O)cc2c1 (stereo unspecified) | -0.0637

Row | Structure (SMILES) | z-score
97 | C=CCOc1nc2c(c(=O)n(C)c(=O)n2C)n1Cc1ccccc1Cl | -1.74
98 | O=C(CCc1ccc(S(=O)(=O)NCc2ccccc2)cc1)N1CCN(Cc2ccc3c(c2)OCO3)CC1 | 0.0321
99 | O=C1c2ccccc2C(=O)N1C/C=C/c1ccccc1 | 0.449
100 | Cc1c(N=C/C=C/c2ccccc2)cnn1C | 0.563
101 | CCn1c(C)cs/c1=N\C(=S)Nc1ccccc1C | -1.3
102 | CCOc1cc(C2/C(=C(\O)c3cc(C)ccc3C)C(=O)C(=O)N2CCN(C)C)ccc1O (stereo unspecified) | 0.0564
103 | Cc1ccc(OCc2nnc(NC(=O)c3ccco3)s2)cc1 | -0.0697
104 | Cc1cccc(C)c1OCC(O)CN (stereo unspecified) | -0.434
105 | CCc1ccc2oc(=O)cc(CN3CCOCC3)c2c1 | -0.453
106 | Cc1ccc(CNC(=O)CN(Cc2cccs2)C(=O)C2(C)CC(=O)N=C3C=CC=CN32)cc1 (stereo unspecified) | -0.114
107 | CC1CC(C)CN(C(=S)Nc2ccc3nc4n(c(=O)c3c2)CCCCC4)C1 (stereo unspecified) | -0.417
108 | COC(=O)c1[nH]c2cccc(Cl)c2c1NC(=O)CN1CCN(CCO)CC1 | -0.183
109 | COc1cc(C=O)ccc1OCCCOc1ccccc1[N+](=O)[O-] | -0.16
110 | O=C(NCc1ccc(Cl)cc1)c1cc2ccccn2n1 | -0.516
111 | C=CCC1C=CCC(CC=C)N1C(=O)c1ccccc1[N+](=O)[O-] (stereo unspecified) | -0.378
112 | CCOC(=O)/C(C#N)=C\c1ccc(N2CCN(C/C=C/c3ccccc3)CC2)cc1 | -0.322
113 | CCOc1ccccc1N1CCN(C(=O)c2ccncc2)CC1 | 0.397
114 | Cc1c(NS(=O)(=O)N2CCCCC2)c(=O)n(-c2ccccc2)n1C | -0.144
115 | CCCCS(=O)(=O)N1CN(S(=O)(=O)CCCC)C2NC(=O)NC21 (stereo unspecified) | -0.232
116 | CC1CCCC(NC(=O)COC(=O)Cc2ccsc2)C1C (stereo unspecified) | 0.259
